These results are taken from article PMC12820563.

The list shows a part of the results. The list includes weakly bound sequences.

In this experiment the target is T1, MBP-FoxP3dN (UniProt Q99JB6).
T1 sequence: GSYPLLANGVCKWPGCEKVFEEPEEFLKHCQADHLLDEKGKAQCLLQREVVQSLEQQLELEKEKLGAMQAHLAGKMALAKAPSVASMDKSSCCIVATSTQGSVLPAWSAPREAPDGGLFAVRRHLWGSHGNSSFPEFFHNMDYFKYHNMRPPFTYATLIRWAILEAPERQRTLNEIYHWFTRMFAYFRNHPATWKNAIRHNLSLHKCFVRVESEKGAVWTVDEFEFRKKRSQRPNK
Kind of experiment: PD-seq (MBP pull-down with sequencing). The conditions noted are these: 20 mM Tris-HCl pH 7.5, 100 mM NaCl, 1.5 mM MgCl2, 0.4 uM protein, 0.1 uM dsDNA library, 30 min, room temperature, amylose pull-down; high values mean tight binding; double strand, one strand shown.
Consider “GATGATTGTTCTCCCAGCTGATGAATTTGTCATATCGAGTAAACAAATTTTCCTAATCTTTCTGTTCAAGCGCCATCTAC”, for which the binding signal (RPM ratio (pull-down/input)) came to 4.27.
Next, “GATGATTGTTCTCCCAGCTGATGAATTGTCCTGTTCGAGTAAACAAATTTTCCTAATCTTTCTGTTCAAGCGCCATCTAC”: 0.433; “GATGATTGTTCTCCCAGCTGATGAATTAACGATATCGAGTAAACAAATTTTCCTAATCTTTCTGTTCAAGCGCCATCTAC”: 0.471.
Next, “GATGATTGTTCTCCCAGCTGATGAATTCGGTTAGTCGAGTAAACAAATTTTCCTAATCTTTCTGTTCAAGCGCCATCTAC”: 1.31.
With “GATGATTGTTCTCCCAGCTGATGAATTGACAGGATCGAGTAAACAAATTTTCCTAATCTTTCTGTTCAAGCGCCATCTAC”, the binding signal (RPM ratio (pull-down/input)) is 0.291.
Next, “GATGATTGTTCTCCCAGCTGATGAATTCATTACATCGAGTAAACAAATTTTCCTAATCTTTCTGTTCAAGCGCCATCTAC”: 0.562.
Turning to “GATGATTGTTCTCCCAGCTGATGAATTAAATGGCTCGAGTAAACAAATTTTCCTAATCTTTCTGTTCAAGCGCCATCTAC”, the binding signal (RPM ratio (pull-down/input)) was determined as 0.417.
Next, “GATGATTGTTCTCCCAGCTGATGAATTTGGGCATTCGAGTAAACAAATTTTCCTAATCTTTCTGTTCAAGCGCCATCTAC”: 4.79; “GATGATTGTTCTCCCAGCTGATGAATTAGGGCGCTCGAGTAAACAAATTTTCCTAATCTTTCTGTTCAAGCGCCATCTAC”: 0.37.
Next, “GATGATTGTTCTCCCAGCTGATGAATTAAGTGCGTCGAGTAAACAAATTTTCCTAATCTTTCTGTTCAAGCGCCATCTAC”: 0.935; “GATGATTGTTCTCCCAGCTGATGAATTGAGGACCTCGAGTAAACAAATTTTCCTAATCTTTCTGTTCAAGCGCCATCTAC”: 0.228.
With “GATGATTGTTCTCCCAGCTGATGAATTCCCCGTTTCGAGTAAACAAATTTTCCTAATCTTTCTGTTCAAGCGCCATCTAC” the figure was 0.281; with “GATGATTGTTCTCCCAGCTGATGAATTCGCCCGTTCGAGTAAACAAATTTTCCTAATCTTTCTGTTCAAGCGCCATCTAC”, 0.332; with “GATGATTGTTCTCCCAGCTGATGAATTGAGCGACTCGAGTAAACAAATTTTCCTAATCTTTCTGTTCAAGCGCCATCTAC”, 1.55.
With “GATGATTGTTCTCCCAGCTGATGAATTGACACCTTCGAGTAAACAAATTTTCCTAATCTTTCTGTTCAAGCGCCATCTAC”, the binding signal (RPM ratio (pull-down/input)) was found to be 0.536.
Next, “GATGATTGTTCTCCCAGCTGATGAATTATAGTGGTCGAGTAAACAAATTTTCCTAATCTTTCTGTTCAAGCGCCATCTAC”: 0.617; “GATGATTGTTCTCCCAGCTGATGAATTCACAGCCTCGAGTAAACAAATTTTCCTAATCTTTCTGTTCAAGCGCCATCTAC”: 0.33; “GATGATTGTTCTCCCAGCTGATGAATTTGCGTTTTCGAGTAAACAAATTTTCCTAATCTTTCTGTTCAAGCGCCATCTAC”: 2.69.
Next, “GATGATTGTTCTCCCAGCTGATGAATTATGCGCATCGAGTAAACAAATTTTCCTAATCTTTCTGTTCAAGCGCCATCTAC”: 2.3; “GATGATTGTTCTCCCAGCTGATGAATTCGCAGGGTCGAGTAAACAAATTTTCCTAATCTTTCTGTTCAAGCGCCATCTAC”: 0.31.
Next, “GATGATTGTTCTCCCAGCTGATGAATTGGAAATCTCGAGTAAACAAATTTTCCTAATCTTTCTGTTCAAGCGCCATCTAC”: 0.256; “GATGATTGTTCTCCCAGCTGATGAATTCACAGGGTCGAGTAAACAAATTTTCCTAATCTTTCTGTTCAAGCGCCATCTAC”: 0.208; “GATGATTGTTCTCCCAGCTGATGAATTCCGGTCTTCGAGTAAACAAATTTTCCTAATCTTTCTGTTCAAGCGCCATCTAC”: 0.382.
Regarding “GATGATTGTTCTCCCAGCTGATGAATTGCCGCAGTCGAGTAAACAAATTTTCCTAATCTTTCTGTTCAAGCGCCATCTAC”, the binding signal (RPM ratio (pull-down/input)) was determined as 0.77.
Turning to “GATGATTGTTCTCCCAGCTGATGAATTGATTAATTCGAGTAAACAAATTTTCCTAATCTTTCTGTTCAAGCGCCATCTAC”, the binding signal (RPM ratio (pull-down/input)) amounted to 0.365.
Next, “GATGATTGTTCTCCCAGCTGATGAATTCCCTGCATCGAGTAAACAAATTTTCCTAATCTTTCTGTTCAAGCGCCATCTAC”: 0.746; “GATGATTGTTCTCCCAGCTGATGAATTCCCAATCTCGAGTAAACAAATTTTCCTAATCTTTCTGTTCAAGCGCCATCTAC”: 0.289.
Take “GATGATTGTTCTCCCAGCTGATGAATTTCACCACTCGAGTAAACAAATTTTCCTAATCTTTCTGTTCAAGCGCCATCTAC”: the binding signal (RPM ratio (pull-down/input)) came out at 0.417.
Next, “GATGATTGTTCTCCCAGCTGATGAATTATCTTGCTCGAGTAAACAAATTTTCCTAATCTTTCTGTTCAAGCGCCATCTAC”: 0.291.
Next, “GATGATTGTTCTCCCAGCTGATGAATTCACGGCGTCGAGTAAACAAATTTTCCTAATCTTTCTGTTCAAGCGCCATCTAC”: 0.434; “GATGATTGTTCTCCCAGCTGATGAATTTAGACTTTCGAGTAAACAAATTTTCCTAATCTTTCTGTTCAAGCGCCATCTAC”: 1.49; “GATGATTGTTCTCCCAGCTGATGAATTTCAGGGTTCGAGTAAACAAATTTTCCTAATCTTTCTGTTCAAGCGCCATCTAC”: 0.328.
